Measurements published in the supplement of paper PMC9446081.
In all, about 39,000 compounds went through this assay and about 220 (0.56%) showed activity. The list shows a part of the results.

system: Escherichia coli K-12 BW25113; assay: relative growth (OD600 normalised to plate interquartile mean) (fraction); higher = less growth inhibition, active = 0.2 or less; conditions: 50 µM; LB; incubation time: overnight (16-24 h)
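Also: static incubation at 37 °C against the wild-type strain, values averaged over two biological replicates.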

| SMILES | relative growth |
| --- | --- |
| C[C@H](CO)N1C[C@H](C)[C@H](CN(C)S(C)(=O)=O)Oc2c(NS(=O)(=O)c3ccc(Cl)cc3)cccc2C1=O | inactive: 1.02 |
| COc1ccc(S(=O)(=O)N(C)C[C@@H]2Oc3ccc(NS(=O)(=O)c4ccc(F)cc4)cc3C(=O)N([C@H](C)CO)C[C@H]2C)cc1 | inactive: 0.999 |
| CC(C)(C)c1c(C(C)(C)C)c1=O | inactive: 0.987 |
| CN1CCN(C(=O)C[C@@H]2CC[C@H]3[C@@H](COc4ccc(NC(=O)c5cscn5)cc4C(=O)N3C)O2)CC1 | inactive: 1.01 |
| CCCC(=O)Nc1ccc2c(c1)C(=O)N(C)C[C@@H](OC)[C@H](C)CN(Cc1ccc(-c3ccccn3)cc1)[C@@H](C)CO2 | inactive: 1.05 |
| C[C@@H]1CCCCO[C@@H](CN(C)S(C)(=O)=O)[C@@H](C)CN([C@@H](C)CO)C(=O)c2cc(NS(=O)(=O)c3ccc(F)cc3)ccc2O1 | inactive: 1.04 |
| COc1ccc(S(=O)(=O)Nc2ccc3c(c2)C(=O)N([C@H](C)CO)C[C@@H](C)[C@@H](CN(C)CC2CCCCC2)OCCCC[C@@H](C)O3)cc1 | inactive: 1.01 |
| Cn1c(=O)c2[nH]c(Br)nc2n(C)c1=O | inactive: 1.02 |
| C[C@@H]1CCCCO[C@H](CN(C)C(=O)Cc2ccccc2)[C@@H](C)CN([C@@H](C)CO)C(=O)c2cc(NC(=O)CCC(F)(F)F)ccc2O1 | inactive: 0.983 |
| CO[C@H]1CN(C)C(=O)c2cc(NS(=O)(=O)c3cn(C)cn3)ccc2OC[C@@H](C)N(CC2CC2)C[C@H]1C | inactive: 1.03 |
| CN(C)C(=O)c1ccc(-c2cccc(-c3nc(C(=O)NCc4ccccc4)cc4c3[C@H](CCO)N([S@@](=O)C(C)(C)C)C4)c2)cc1 | inactive: 0.969 |
| C[C@@H]1CCCCO[C@H](CN(C)S(C)(=O)=O)[C@H](C)CN([C@@H](C)CO)C(=O)c2cc(NS(=O)(=O)c3cn(C)cn3)ccc2O1 | inactive: 0.989 |
| Cc1ccc(S[C@]2(C(=O)NC(C)C)CC(=O)N(Cc3ccccc3Cl)[C@@H]2c2ccc(CO)cc2I)cc1 | inactive: 0.982 |
| C=CC[C@H](CC(=O)N(CCO)Cc1ccccc1)C(=O)N[C@H](COC(=O)[C@H](CC=C)NC(=O)OCC1c2ccccc2-c2ccccc21)C(C)(C)C | inactive: 1.01 |
| C[C@@H]1CN([C@@H](C)CO)C(=O)Cc2cc(NC(=O)CCN3CCOCC3)ccc2O[C@H]1CN(C)S(=O)(=O)c1ccccc1 | inactive: 0.982 |
| CC(C)CN(C[C@@H](O)[C@H](Cc1ccccc1)NC(=O)O[C@H]1CO[C@H]2OCC[C@H]21)S(=O)(=O)c1ccc(N)cc1 | inactive: 1.02 |
